Results reported in the RNAGym collection of RNA variant scans (doi:10.7554/elife.90254).
Read counts are not given, so values of variants with three or more changes are uncertain.

B1: LINE1-mini (parent)
chain: GGCAGAGCUCAACACAGCGUGGCAAAGUGGCUGUGGCUAGACUGCC

Variants of: B1
Assay: self-cleavage, relative activity (ratio to wild type); higher = more cleavage; in vitro, sequencing; the parent is a self-cleaving ribozyme
With C10A C13G G21A A24C A41U the self-cleavage was 0.01.
C10A U28C C42U gave a self-cleavage of 0.03.
With C10A A14U G17U G21C the self-cleavage was 0.03.
With C10A G17U G19U C37U the self-cleavage was 0.
Work on C10A C13G G40C yielded a self-cleavage of 0.01.
C10G C13U A39U showed a self-cleavage of 0.02.
C10A G36A A39G showed a self-cleavage of 0.02.
C10A C18U C45U showed a self-cleavage of 0.03.
Work on C10A G19U C37G yielded a self-cleavage of 0.01.
C10G A14U U20A C23U G36U showed a self-cleavage of 0.
Work on C10A C23U A24U G33C yielded a self-cleavage of 0.01.
C10A G22A G30C showed a self-cleavage of 0.1.
In the case of C10A A14G A16G C18A A24U G30U, the self-cleavage is reported as 0.02.
C10G G17A A41G C42A gave a self-cleavage of 0.04.
U9G U20G U32G showed a self-cleavage of 0.04.
C10A G33C G44U gave a self-cleavage of 0.02.
For C10A A26C G33C, the self-cleavage was 0.02.
In the case of C10A C18U A26C U38A, the self-cleavage is reported as 0.
For C10A U28A C42G, the self-cleavage was 0.02.
Variant C10A A14U U20A G36C has a self-cleavage of 0.
Work on C10A C37A A41U yielded a self-cleavage of 0.02.
With C10A G21C C31U the self-cleavage was 0.03.
For C10A G33A G35C, the self-cleavage was 0.
For C10G G22U C46U, the self-cleavage was 0.09.
C10A G33A C45U gave a self-cleavage of 0.03.
For C10A C31G U32G G36U, the self-cleavage was 0.04.
For C10A G29U G30A C42U, the self-cleavage was 0.05.
C10A A11C C15A gave a self-cleavage of 0.
Variant C10A C37U C46A has a self-cleavage of 0.01.
For C10A C15U G21U U28C C31G, the self-cleavage was 0.02.
Work on C10A G30U C45G yielded a self-cleavage of 0.08.
In the case of U9G U32G A41G, the self-cleavage is reported as 0.05.
For C10A U20A C23G, the self-cleavage was 0.03.
Variant C10A G19C U28C U43C has a self-cleavage of 0.
Variant C10A C23U G27U has a self-cleavage of 0.02.
For C10A A39U A41G, the self-cleavage was 0.02.
Work on C10A A14C C23U G35U yielded a self-cleavage of 0.
Variant C10A A16U G22U G30U has a self-cleavage of 0.02.
With C10G A11U G22A C23A A39U G44U the self-cleavage was 0.
Variant C10A A11U C13U A39G has a self-cleavage of 0.03.
In the case of C10A A39C C45U, the self-cleavage is reported as 0.07.
In the case of C10A A11C G30C A39U, the self-cleavage is reported as 0.01.
C10G G27U U28G G35C C46U showed a self-cleavage of 0.01.
Work on C10G A14G G36C A39G yielded a self-cleavage of 0.01.
In the case of C10A A24G U34A A41C, the self-cleavage is reported as 0.01.
Variant C10G G22C C23G G35C has a self-cleavage of 0.
Variant C10A C18U G35C C46U has a self-cleavage of 0.01.
C10G G27C G30A G36C gave a self-cleavage of 0.
C10A G29A U38G gave a self-cleavage of 0.03.
In the case of C10A G19C C37U, the self-cleavage is reported as 0.01.
In the case of C10G G17U G22U G35A U43G, the self-cleavage is reported as 0.02.
With C10A C13U G30A the self-cleavage was 0.04.
In the case of C10A C13U G30U, the self-cleavage is reported as 0.06.
In the case of C10A A12C A16U C31U, the self-cleavage is reported as 0.01.
C10A A11U G17C C37A showed a self-cleavage of 0.01.
With C10A C15A C18G A25C C31G C42G the self-cleavage was 0.01.
C10A G27U C31U gave a self-cleavage of 0.33.
With C10A C18A G30A U34G the self-cleavage was 0.02.
In the case of C10A A14G G21A G22U, the self-cleavage is reported as 0.04.
Variant C10A A11U C45U has a self-cleavage of 0.08.
Work on C10A C13U G35U yielded a self-cleavage of 0.02.
For C10G A12U G35A, the self-cleavage was 0.01.
For C10A G22U C23G G33U, the self-cleavage was 0.02.
Work on C10A A16G U28C G33C A39G yielded a self-cleavage of 0.01.
Work on C10A G17C U32C yielded a self-cleavage of 0.05.
C10A C13G C31A G44C gave a self-cleavage of 0.02.
C10A C23U A25U C42G gave a self-cleavage of 0.02.
Work on C10A G19U G40C yielded a self-cleavage of 0.04.
With C10A C23G U43A the self-cleavage was 0.01.
For C10A C23U A39C G44C C46G, the self-cleavage was 0.06.
For C10A A11C A14C A39U, the self-cleavage was 0.01.
For C10A A11U A16G C37U G44U, the self-cleavage was 0.
For C10A G22U C31G C42G, the self-cleavage was 0.02.
For C10A C18G G36A C42A, the self-cleavage was 0.02.
With C10A A26C G35A the self-cleavage was 0.01.
C10G A11U A26C G40U gave a self-cleavage of 0.01.
Work on C10G C18U C37A C46U yielded a self-cleavage of 0.
C10G C23A G40C A41G C45G showed a self-cleavage of 0.02.
Variant U9G U28C G30C G36U has a self-cleavage of 0.04.
In the case of C10A C15U U43C, the self-cleavage is reported as 0.02.
In the case of C10G A16G G30C, the self-cleavage is reported as 0.06.
Work on C10A A14G C31A U32G A41U yielded a self-cleavage of 0.01.
Variant C10G A12C C23G A26G U34G C46U has a self-cleavage of 0.01.
In the case of C10A C31U G35A G44U, the self-cleavage is reported as 0.01.
For C10A A26C G29U U34A G35A, the self-cleavage was 0.02.
C10A G19C U28G gave a self-cleavage of 0.05.
For C10A A26C C45U C46A, the self-cleavage was 0.01.
Variant C10G G21C G35C G36A has a self-cleavage of 0.01.
With C10A G19U C23A G30U G35C the self-cleavage was 0.01.
With C10A C15A G17A U20C U32C the self-cleavage was 0.01.
In the case of C10A G19C G30U U43G C45U, the self-cleavage is reported as 0.
Work on C10G A11U C46A yielded a self-cleavage of 0.01.
C10G A25U G40A showed a self-cleavage of 0.06.
For C10A G21U G40U, the self-cleavage was 0.02.
In the case of C10A G21C U34C, the self-cleavage is reported as 0.28.
Variant C10A A11U A12U U20A has a self-cleavage of 0.01.
In the case of C10G A11U C18G U28A, the self-cleavage is reported as 0.02.
Variant C10A A11U A14U G44U has a self-cleavage of 0.01.
With C10A A12G A16C the self-cleavage was 0.05.
C10A G29U C46G gave a self-cleavage of 0.14.
C10A G29U C46U gave a self-cleavage of 0.07.
Variant C10A G36U U43C C45U has a self-cleavage of 0.01.
In the case of C10G C13A G29U C45A, the self-cleavage is reported as 0.01.
Variant C10G C13A A41G has a self-cleavage of 0.
In the case of C10A G35A G44U, the self-cleavage is reported as 0.03.
Variant C10A C15G A39C has a self-cleavage of 0.02.
C10G C13U C15U U20G G21C G29U showed a self-cleavage of 0.01.
Variant C10A A12G G29C C37U G40U has a self-cleavage of 0.01.
C10G G21U A39C C45U showed a self-cleavage of 0.03.
For C10A G27A G44A, the self-cleavage was 0.06.
Variant C10G G21U G33A G36U U43G has a self-cleavage of 0.
Variant C10A A24C A25U A41C C42G has a self-cleavage of 0.
With C10A C13G A26U G29A U38A the self-cleavage was 0.02.
With C10A G17C A26C U43G the self-cleavage was 0.
With C10A A25U U38A C42G C45U the self-cleavage was 0.02.
Work on C10G C15G U20C yielded a self-cleavage of 0.02.
With C10A C18A C42U the self-cleavage was 0.
In the case of C10G A16G U20C A24G G27C, the self-cleavage is reported as 0.02.
Work on C10A A16U C23U yielded a self-cleavage of 0.05.
With C10A C15U A16C A24G U28C G36U the self-cleavage was 0.02.
Variant C10A U32A G33U U34C C42G has a self-cleavage of 0.02.
For C10A A16C G29A, the self-cleavage was 0.03.
C10A U38G C42G gave a self-cleavage of 0.02.
In the case of C10A A14U C31G U34A, the self-cleavage is reported as 0.01.
C10G G22C C42A showed a self-cleavage of 0.02.
Work on C10A A24C U32A C46G yielded a self-cleavage of 0.01.
Work on C10A C13G A26U G27A G29U yielded a self-cleavage of 0.
In the case of C10A C18A G33U, the self-cleavage is reported as 0.05.
With C10G A11G G22A C31A C45G the self-cleavage was 0.01.
Work on C10A A14G G30C yielded a self-cleavage of 0.
Variant C10A G33U G35C has a self-cleavage of 0.03.
Variant C10A G30A C45G C46U has a self-cleavage of 0.05.
C10A G19A A24C G35A G36A showed a self-cleavage of 0.01.
With C10A U34A A41U the self-cleavage was 0.02.
Work on C10A G19U G36U C45A yielded a self-cleavage of 0.01.
C10G C15A G40C gave a self-cleavage of 0.01.
Variant C10A A14G G17A C45U has a self-cleavage of 0.03.
For C10A C13U U28G G36A A39C, the self-cleavage was 0.02.
With C10A A16C C18U U43A the self-cleavage was 0.03.
C10A G19U A25U G33C showed a self-cleavage of 0.
For C10A U34C C37G, the self-cleavage was 0.04.
C10G A11G A12C C18G A26U G33C showed a self-cleavage of 0.01.
C10A G21U U34A gave a self-cleavage of 0.02.
With C10G A12U C18A U28C C37U the self-cleavage was 0.01.
With C10A G19C U20G G27A C45U the self-cleavage was 0.03.
Work on C10A C13A G22U G27A C37A yielded a self-cleavage of 0.01.
Variant C10G G21U G40C U43C C45U has a self-cleavage of 0.
C10A C18U C23G G33C C42A gave a self-cleavage of 0.
Variant C10G G19A A26C C37G C42U has a self-cleavage of 0.
Work on C10A U34G G44U yielded a self-cleavage of 0.
Work on C10G C15U G35A yielded a self-cleavage of 0.04.
With C10G A14U C15U the self-cleavage was 0.02.
For C10A G19U G35A C45A, the self-cleavage was 0.04.
C10A C13A U43C showed a self-cleavage of 0.02.
Variant C10A G36A U38C has a self-cleavage of 0.02.
Work on C10A A26G G40U yielded a self-cleavage of 0.
With C10A G30A U38G the self-cleavage was 0.15.
C10A G30U G36C A39U showed a self-cleavage of 0.04.
C10A G36A U38G G44U showed a self-cleavage of 0.03.
Work on C10A U20A G33C G36A G40C yielded a self-cleavage of 0.01.
Work on C10A A11G G29C yielded a self-cleavage of 0.02.
With C10G G22U G35U the self-cleavage was 0.02.
Work on C10G C18A U20C yielded a self-cleavage of 0.03.
Variant C10A G22C G33U has a self-cleavage of 0.04.
C10A A16U G21C G33A C45A showed a self-cleavage of 0.02.
Variant C10A G22A A24G U38A has a self-cleavage of 0.04.
With C10G G27C U34A C45U the self-cleavage was 0.02.
